# Publication PMC6310259
# These are yes or no findings as the source states them, for the method shown. For some of these results: In cells and extracts the contact can be indirect. Some results given as binding are weak or reduced against the parent protein; the word gives no strength. Tags and fused reporters may be left off the sequences shown.
# T1: BOP1, BiFC fusion (Arabidopsis thaliana) (UniProt Q9M1I7)
# T1 sequence: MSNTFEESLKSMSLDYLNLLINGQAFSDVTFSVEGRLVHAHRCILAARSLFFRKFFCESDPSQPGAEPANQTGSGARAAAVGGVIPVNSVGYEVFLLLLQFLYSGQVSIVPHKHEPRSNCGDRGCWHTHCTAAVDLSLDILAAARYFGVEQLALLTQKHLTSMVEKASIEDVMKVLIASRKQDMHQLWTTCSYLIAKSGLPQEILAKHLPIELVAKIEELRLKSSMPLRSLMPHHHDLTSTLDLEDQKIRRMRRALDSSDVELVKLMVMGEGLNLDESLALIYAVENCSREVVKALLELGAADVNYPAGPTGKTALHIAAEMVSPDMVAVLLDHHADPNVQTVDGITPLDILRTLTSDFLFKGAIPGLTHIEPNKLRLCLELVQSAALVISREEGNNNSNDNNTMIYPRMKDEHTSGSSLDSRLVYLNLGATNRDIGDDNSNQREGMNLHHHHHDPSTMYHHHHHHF
# T2: BOP2, BiFC fusion (Arabidopsis thaliana) (UniProt Q9ZVC2)
# T2 sequence: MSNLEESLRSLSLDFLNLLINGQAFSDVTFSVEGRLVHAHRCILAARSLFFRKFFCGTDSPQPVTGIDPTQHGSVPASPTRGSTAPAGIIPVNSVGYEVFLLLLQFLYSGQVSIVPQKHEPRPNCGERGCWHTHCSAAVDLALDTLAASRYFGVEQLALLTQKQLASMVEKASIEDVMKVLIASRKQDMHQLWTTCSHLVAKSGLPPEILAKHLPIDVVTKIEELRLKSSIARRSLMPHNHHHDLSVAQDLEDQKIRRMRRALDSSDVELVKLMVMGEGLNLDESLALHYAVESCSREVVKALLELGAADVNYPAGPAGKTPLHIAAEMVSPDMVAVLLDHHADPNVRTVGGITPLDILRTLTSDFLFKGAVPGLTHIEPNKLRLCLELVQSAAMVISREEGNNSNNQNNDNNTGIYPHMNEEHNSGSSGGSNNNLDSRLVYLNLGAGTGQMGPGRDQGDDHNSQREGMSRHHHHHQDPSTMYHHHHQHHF
# T3: NPR2, BiFC fusion (Arabidopsis thaliana) (UniProt Q9SZI3)
# T3 sequence: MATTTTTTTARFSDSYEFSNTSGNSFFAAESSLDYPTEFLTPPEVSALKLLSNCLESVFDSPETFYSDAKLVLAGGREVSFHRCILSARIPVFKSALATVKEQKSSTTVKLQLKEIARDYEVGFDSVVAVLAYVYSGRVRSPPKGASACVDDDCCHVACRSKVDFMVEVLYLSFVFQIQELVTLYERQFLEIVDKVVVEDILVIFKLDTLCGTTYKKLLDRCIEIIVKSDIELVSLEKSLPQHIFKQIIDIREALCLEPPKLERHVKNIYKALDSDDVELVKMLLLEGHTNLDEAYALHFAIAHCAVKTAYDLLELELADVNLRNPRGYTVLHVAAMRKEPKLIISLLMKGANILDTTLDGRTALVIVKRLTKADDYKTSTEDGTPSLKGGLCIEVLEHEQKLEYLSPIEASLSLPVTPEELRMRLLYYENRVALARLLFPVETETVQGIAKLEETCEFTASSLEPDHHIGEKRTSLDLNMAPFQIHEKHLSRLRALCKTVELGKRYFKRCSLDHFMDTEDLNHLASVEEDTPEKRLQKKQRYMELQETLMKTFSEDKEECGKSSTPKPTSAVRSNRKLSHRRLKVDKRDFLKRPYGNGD
# T4: NPR2, yeast two-hybrid fusion (Arabidopsis thaliana) (UniProt Q9SZI3)
# T4 sequence: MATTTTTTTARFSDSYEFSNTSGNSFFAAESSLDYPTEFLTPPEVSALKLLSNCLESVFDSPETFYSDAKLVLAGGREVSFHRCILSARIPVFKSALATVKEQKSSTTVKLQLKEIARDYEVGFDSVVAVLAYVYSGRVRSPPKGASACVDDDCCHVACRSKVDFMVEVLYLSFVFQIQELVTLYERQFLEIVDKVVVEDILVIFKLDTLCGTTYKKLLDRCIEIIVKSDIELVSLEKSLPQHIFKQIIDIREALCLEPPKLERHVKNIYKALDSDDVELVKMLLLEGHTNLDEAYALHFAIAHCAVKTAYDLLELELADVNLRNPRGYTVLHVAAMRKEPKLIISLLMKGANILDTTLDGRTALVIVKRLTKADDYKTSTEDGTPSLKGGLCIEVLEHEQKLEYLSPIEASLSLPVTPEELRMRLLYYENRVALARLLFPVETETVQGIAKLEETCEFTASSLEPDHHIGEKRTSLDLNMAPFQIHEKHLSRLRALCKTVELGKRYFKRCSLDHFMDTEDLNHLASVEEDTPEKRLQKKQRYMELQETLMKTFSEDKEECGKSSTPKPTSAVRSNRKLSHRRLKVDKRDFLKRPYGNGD
# T5: NPR4, yeast two-hybrid fusion (Arabidopsis thaliana) (UniProt Q5ICL9)
# T5 sequence: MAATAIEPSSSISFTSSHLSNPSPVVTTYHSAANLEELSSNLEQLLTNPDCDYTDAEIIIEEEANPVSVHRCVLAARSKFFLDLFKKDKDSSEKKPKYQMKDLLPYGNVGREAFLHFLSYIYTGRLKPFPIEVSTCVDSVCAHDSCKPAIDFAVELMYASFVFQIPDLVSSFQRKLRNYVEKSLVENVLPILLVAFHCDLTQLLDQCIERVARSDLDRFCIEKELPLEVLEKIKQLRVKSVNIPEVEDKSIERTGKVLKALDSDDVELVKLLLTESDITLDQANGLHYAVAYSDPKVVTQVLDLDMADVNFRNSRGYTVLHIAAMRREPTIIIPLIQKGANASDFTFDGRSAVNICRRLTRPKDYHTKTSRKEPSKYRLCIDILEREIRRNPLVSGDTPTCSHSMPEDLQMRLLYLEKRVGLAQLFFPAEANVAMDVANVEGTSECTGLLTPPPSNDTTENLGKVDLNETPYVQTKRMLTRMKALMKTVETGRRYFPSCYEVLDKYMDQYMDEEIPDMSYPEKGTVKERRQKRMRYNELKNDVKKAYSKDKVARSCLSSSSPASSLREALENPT
# T6: NON EXPRESSER OF PATHOGENESIS RELATED 1 (NPR1), yeast two-hybrid fusion (Arabidopsis thaliana), P93002
# T6 chain: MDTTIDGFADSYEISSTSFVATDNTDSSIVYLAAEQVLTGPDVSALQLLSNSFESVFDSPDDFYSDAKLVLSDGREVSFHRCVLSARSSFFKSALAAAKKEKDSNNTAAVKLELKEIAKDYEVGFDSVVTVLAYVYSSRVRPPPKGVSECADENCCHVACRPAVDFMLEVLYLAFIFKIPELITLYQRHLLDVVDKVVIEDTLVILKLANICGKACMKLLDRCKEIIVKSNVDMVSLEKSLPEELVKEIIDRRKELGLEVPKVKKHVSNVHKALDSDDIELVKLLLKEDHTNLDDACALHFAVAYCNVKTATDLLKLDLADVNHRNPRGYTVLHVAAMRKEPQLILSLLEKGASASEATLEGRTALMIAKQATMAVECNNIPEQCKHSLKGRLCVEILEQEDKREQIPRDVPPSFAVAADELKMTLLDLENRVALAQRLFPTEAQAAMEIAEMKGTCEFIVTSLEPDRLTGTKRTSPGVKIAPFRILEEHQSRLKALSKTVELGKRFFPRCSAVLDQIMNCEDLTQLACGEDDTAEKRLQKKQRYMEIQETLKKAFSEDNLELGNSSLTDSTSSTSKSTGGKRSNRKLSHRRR
# How the values were obtained:
# [1] = target: T1, BOP1, BiFC fusion (Arabidopsis thaliana); test: split reporter; BiFC in N. benthamiana leaves, agroinfiltrated; 1 mM SA one day before visualization; first protein fused with the N-terminal part of GFP, second with the C-terminal; confocal microscopy
# [2] = target: T2, BOP2, BiFC fusion (Arabidopsis thaliana); test: as above
# [3] = target: T3, NPR2, BiFC fusion (Arabidopsis thaliana); test: as above
# [4] = target: T4, NPR2, yeast two-hybrid fusion (Arabidopsis thaliana); test: two-hybrid; NPR1 paralogs against each other (Fig 5); growth on -His, 5 mM or less 3AT when indicated; result told for plates with and without SA alike, or without naming the plate
# [5] = target: T5, NPR4, yeast two-hybrid fusion (Arabidopsis thaliana); test: as above
# [6] = target: T6, NON EXPRESSER OF PATHOGENESIS RELATED 1 …; test: two-hybrid; NPR1 paralogs against each other (Fig 5); growth on -His in the absence of SA, 0 to 5 mM 3AT; settings: remark: other sources report otherwise
# [7] = target: T5, NPR4, yeast two-hybrid fusion (Arabidopsis thaliana); test: two-hybrid; NPR1 paralogs against each other (Fig 5); growth on -His in the presence of 100 μM SA
Molecule,binding [4],binding [5],further results
"NPR1, BiFC fusion (from UniProt P93002 1-593)",–,–,binding [1]: binds; binding [2]: binds; binding [3]: binds
"NON EXPRESSER OF PATHOGENESIS RELATED 1 (NPR1), yeast two-hybrid fusion (from UniProt P93002 1-593)",binds,–,–
"BOP2, yeast two-hybrid fusion (protein, UniProt Q9ZVC2 1-491) MSNLEESLRSLSLDFLNLLINGQAFSDVTFSVEGRLVHAHRCILAARSLFFRKFFCGTDSPQPVTGIDPTQHGSVPASPTRGSTAPAGIIPVNSVGYEVFLLLLQFLYSGQVSIVPQKHEPRPNCGERGCWHTHCSAAVDLALDTLAASRYFGVEQLALLTQKQLASMVEKASIEDVMKVLIASRKQDMHQLWTTCSHLVAKSGLPPEILAKHLPIDVVTKIEELRLKSSIARRSLMPHNHHHDLSVAQDLEDQKIRRMRRALDSSDVELVKLMVMGEGLNLDESLALHYAVESCSREVVKALLELGAADVNYPAGPAGKTPLHIAAEMVSPDMVAVLLDHHADPNVRTVGGITPLDILRTLTSDFLFKGAVPGLTHIEPNKLRLCLELVQSAAMVISREEGNNSNNQNNDNNTGIYPHMNEEHNSGSSGGSNNNLDSRLVYLNLGAGTGQMGPGRDQGDDHNSQREGMSRHHHHHQDPSTMYHHHHQHHF",binds,binds,–
"NON EXPRESSER OF PATHOGENESIS RELATED 1 (NPR1), yeast two-hybrid fusion, P93002 1-593 (protein) MDTTIDGFADSYEISSTSFVATDNTDSSIVYLAAEQVLTGPDVSALQLLSNSFESVFDSPDDFYSDAKLVLSDGREVSFHRCVLSARSSFFKSALAAAKKEKDSNNTAAVKLELKEIAKDYEVGFDSVVTVLAYVYSSRVRPPPKGVSECADENCCHVACRPAVDFMLEVLYLAFIFKIPELITLYQRHLLDVVDKVVIEDTLVILKLANICGKACMKLLDRCKEIIVKSNVDMVSLEKSLPEELVKEIIDRRKELGLEVPKVKKHVSNVHKALDSDDIELVKLLLKEDHTNLDDACALHFAVAYCNVKTATDLLKLDLADVNHRNPRGYTVLHVAAMRKEPQLILSLLEKGASASEATLEGRTALMIAKQATMAVECNNIPEQCKHSLKGRLCVEILEQEDKREQIPRDVPPSFAVAADELKMTLLDLENRVALAQRLFPTEAQAAMEIAEMKGTCEFIVTSLEPDRLTGTKRTSPGVKIAPFRILEEHQSRLKALSKTVELGKRFFPRCSAVLDQIMNCEDLTQLACGEDDTAEKRLQKKQRYMEIQETLKKAFSEDNLELGNSSLTDSTSSTSKSTGGKRSNRKLSHRRR",–,–,binding [6]: binds
"NPR3, yeast two-hybrid fusion (protein, UniProt Q8L746 1-586) MATLTEPSSSLSFTSSHFSYGSIGSNHFSSSSASNPEVVSLTKLSSNLEQLLSNSDCDYSDAEIIVDGVPVGVHRCILAARSKFFQDLFKKEKKISKTEKPKYQLREMLPYGAVAHEAFLYFLSYIYTGRLKPFPLEVSTCVDPVCSHDCCRPAIDFVVQLMYASSVLQVPELVSSFQRRLCNFVEKTLVENVLPILMVAFNCKLTQLLDQCIERVARSDLYRFCIEKEVPPEVAEKIKQLRLISPQDEETSPKISEKLLERIGKILKALDSDDVELVKLLLTESDITLDQANGLHYSVVYSDPKVVAEILALDMGDVNYRNSRGYTVLHFAAMRREPSIIISLIDKGANASEFTSDGRSAVNILRRLTNPKDYHTKTAKGRESSKARLCIDILEREIRKNPMVLDTPMCSISMPEDLQMRLLYLEKRVGLAQLFFPTEAKVAMDIGNVEGTSEFTGLSPPSSGLTGNLSQVDLNETPHMQTQRLLTRMVALMKTVETGRRFFPYGSEVLDKYMAEYIDDDILDDFHFEKGSTHERRLKRMRYRELKDDVQKAYSKDKESKIARSCLSASSSPSSSSIRDDLHNTT",–,–,binding [7]: binds
"BLADE ON PETIOLE 1 (BOP1), yeast two-hybrid fusion (protein, UniProt Q9M1I7 1-467) MSNTFEESLKSMSLDYLNLLINGQAFSDVTFSVEGRLVHAHRCILAARSLFFRKFFCESDPSQPGAEPANQTGSGARAAAVGGVIPVNSVGYEVFLLLLQFLYSGQVSIVPHKHEPRSNCGDRGCWHTHCTAAVDLSLDILAAARYFGVEQLALLTQKHLTSMVEKASIEDVMKVLIASRKQDMHQLWTTCSYLIAKSGLPQEILAKHLPIELVAKIEELRLKSSMPLRSLMPHHHDLTSTLDLEDQKIRRMRRALDSSDVELVKLMVMGEGLNLDESLALIYAVENCSREVVKALLELGAADVNYPAGPTGKTALHIAAEMVSPDMVAVLLDHHADPNVQTVDGITPLDILRTLTSDFLFKGAIPGLTHIEPNKLRLCLELVQSAALVISREEGNNNSNDNNTMIYPRMKDEHTSGSSLDSRLVYLNLGATNRDIGDDNSNQREGMNLHHHHHDPSTMYHHHHHHF",binds,binds,–
